The values below come from article PMC12820563, “FoxP3 forms a head-to-head dimer in vivo and stabilizes its multimerization on adjacent microsatellites”.

The other results are listed elsewhere or left out.

The assay deals with T1, MBP-FoxP1dN (Mus musculus, UniProt P58462 326-579).
T1 sequence: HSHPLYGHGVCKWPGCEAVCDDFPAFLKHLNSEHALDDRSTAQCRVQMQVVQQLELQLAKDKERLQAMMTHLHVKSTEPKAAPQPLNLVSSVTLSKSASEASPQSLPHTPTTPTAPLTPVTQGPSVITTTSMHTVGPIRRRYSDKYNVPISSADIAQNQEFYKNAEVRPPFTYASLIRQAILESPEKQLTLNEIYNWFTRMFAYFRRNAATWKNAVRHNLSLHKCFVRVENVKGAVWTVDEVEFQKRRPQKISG
In words: PD-seq (MBP pull-down with sequencing); 20 mM Tris-HCl pH 7.5, 100 mM NaCl, 1.5 mM MgCl2, 0.4 uM protein, 0.1 uM dsDNA library, 30 min, room temperature, amylose pull-down; high values mean tight binding. The conditions noted are these: protein: recombinant; tags: His6-MBP; chain copies: 2; dsDNA, one strand shown. The essentials:
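His6-MBP-tagged mouse FoxP3 or FoxP1 fragment lacking the N-terminus, expressed in E. coli, was mixed at 0.4 µM with 0.1 µM Klenow-filled double-stranded degenerate DNA library. Incubation was 30 min at room temperature in Tris pH 7.5 buffer with NaCl and MgCl2. Complexes were caught on amylose resin and washed three times; DNA was released with proteinase K, PCR-barcoded and Illumina-sequenced. Binding is reads-per-million enrichment, pull-down over input, with replicates pooled.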
With “GATGATTGTTCTCCCAGCTGATGAATTGATGCATTCGAGTAAACAAATTTTCCTAATCTTTCTGTTCAAGCGCCATCTAC”, the binding signal is 1.74 RPM ratio (pull-down/input).

“GATGATTGTTCTCCCAGCTGATGAATTTAGAGTATCGAGTAAACAAATTTTCCTAATCTTTCTGTTCAAGCGCCATCTAC”: the binding signal is 1.02 RPM ratio (pull-down/input).

In the case of “GATGATTGTTCTCCCAGCTGATGAATTACCTTTGTCGAGTAAACAAATTTTCCTAATCTTTCTGTTCAAGCGCCATCTAC”, the binding signal is 0.991 RPM ratio (pull-down/input).

In the case of “GATGATTGTTCTCCCAGCTGATGAATTGGAGACCTCGAGTAAACAAATTTTCCTAATCTTTCTGTTCAAGCGCCATCTAC”, the binding signal was 0.734 RPM ratio (pull-down/input).

Take “GATGATTGTTCTCCCAGCTGATGAATTGTTTCAGTCGAGTAAACAAATTTTCCTAATCTTTCTGTTCAAGCGCCATCTAC”: the binding signal is 1.18 RPM ratio (pull-down/input).

“GATGATTGTTCTCCCAGCTGATGAATTATCAGTTTCGAGTAAACAAATTTTCCTAATCTTTCTGTTCAAGCGCCATCTAC”: the binding signal is 0.957 RPM ratio (pull-down/input).

In the case of “GATGATTGTTCTCCCAGCTGATGAATTGTAACCATCGAGTAAACAAATTTTCCTAATCTTTCTGTTCAAGCGCCATCTAC”, the binding signal is 1.14 RPM ratio (pull-down/input).

Consider “GATGATTGTTCTCCCAGCTGATGAATTGACCTAGTCGAGTAAACAAATTTTCCTAATCTTTCTGTTCAAGCGCCATCTAC”, for which the binding signal was 0.889 RPM ratio (pull-down/input).

Consider “GATGATTGTTCTCCCAGCTGATGAATTAGAAAGTTCGAGTAAACAAATTTTCCTAATCTTTCTGTTCAAGCGCCATCTAC”, for which the binding signal was 0.938 RPM ratio (pull-down/input).

Take “GATGATTGTTCTCCCAGCTGATGAATTACGAAATTCGAGTAAACAAATTTTCCTAATCTTTCTGTTCAAGCGCCATCTAC”: the binding signal is 1.05 RPM ratio (pull-down/input).

Regarding “GATGATTGTTCTCCCAGCTGATGAATTATAGCCGTCGAGTAAACAAATTTTCCTAATCTTTCTGTTCAAGCGCCATCTAC”, the binding signal was 0.907 RPM ratio (pull-down/input).

Turning to “GATGATTGTTCTCCCAGCTGATGAATTGGAATCCTCGAGTAAACAAATTTTCCTAATCTTTCTGTTCAAGCGCCATCTAC”, the binding signal was 0.79 RPM ratio (pull-down/input).

As for “GATGATTGTTCTCCCAGCTGATGAATTCAAGTCATCGAGTAAACAAATTTTCCTAATCTTTCTGTTCAAGCGCCATCTAC”, the binding signal is 0.923 RPM ratio (pull-down/input).

With “GATGATTGTTCTCCCAGCTGATGAATTTGCGAGATCGAGTAAACAAATTTTCCTAATCTTTCTGTTCAAGCGCCATCTAC”, the binding signal was 0.953 RPM ratio (pull-down/input).

Regarding “GATGATTGTTCTCCCAGCTGATGAATTAGCGCACTCGAGTAAACAAATTTTCCTAATCTTTCTGTTCAAGCGCCATCTAC”, the binding signal is 0.88 RPM ratio (pull-down/input).

For “GATGATTGTTCTCCCAGCTGATGAATTGCACGATTCGAGTAAACAAATTTTCCTAATCTTTCTGTTCAAGCGCCATCTAC”, the binding signal was 1.12 RPM ratio (pull-down/input).

With “GATGATTGTTCTCCCAGCTGATGAATTCATCTAGTCGAGTAAACAAATTTTCCTAATCTTTCTGTTCAAGCGCCATCTAC”, the binding signal is 0.92 RPM ratio (pull-down/input).

With “GATGATTGTTCTCCCAGCTGATGAATTCCCCGGTTCGAGTAAACAAATTTTCCTAATCTTTCTGTTCAAGCGCCATCTAC”, the binding signal was 0.786 RPM ratio (pull-down/input).

For “GATGATTGTTCTCCCAGCTGATGAATTAGCTATATCGAGTAAACAAATTTTCCTAATCTTTCTGTTCAAGCGCCATCTAC”, the binding signal is 1.01 RPM ratio (pull-down/input).

As to “GATGATTGTTCTCCCAGCTGATGAATTTCCACGCTCGAGTAAACAAATTTTCCTAATCTTTCTGTTCAAGCGCCATCTAC”, the binding signal is 0.899 RPM ratio (pull-down/input).

As for “GATGATTGTTCTCCCAGCTGATGAATTGTCAGGATCGAGTAAACAAATTTTCCTAATCTTTCTGTTCAAGCGCCATCTAC”, the binding signal was 0.89 RPM ratio (pull-down/input).

On to “GATGATTGTTCTCCCAGCTGATGAATTCCGCCCTTCGAGTAAACAAATTTTCCTAATCTTTCTGTTCAAGCGCCATCTAC”, for which the binding signal was 0.831 RPM ratio (pull-down/input).

On to “GATGATTGTTCTCCCAGCTGATGAATTGTCATATTCGAGTAAACAAATTTTCCTAATCTTTCTGTTCAAGCGCCATCTAC”, for which the binding signal is 1.17 RPM ratio (pull-down/input).

“GATGATTGTTCTCCCAGCTGATGAATTGCATACTTCGAGTAAACAAATTTTCCTAATCTTTCTGTTCAAGCGCCATCTAC”: the binding signal is 1.23 RPM ratio (pull-down/input).

Consider “GATGATTGTTCTCCCAGCTGATGAATTATATACCTCGAGTAAACAAATTTTCCTAATCTTTCTGTTCAAGCGCCATCTAC”, for which the binding signal is 0.983 RPM ratio (pull-down/input).

In the case of “GATGATTGTTCTCCCAGCTGATGAATTAGGAAACTCGAGTAAACAAATTTTCCTAATCTTTCTGTTCAAGCGCCATCTAC”, the binding signal is 0.851 RPM ratio (pull-down/input).

“GATGATTGTTCTCCCAGCTGATGAATTGGAACTATCGAGTAAACAAATTTTCCTAATCTTTCTGTTCAAGCGCCATCTAC”: the binding signal was 0.868 RPM ratio (pull-down/input).

As for “GATGATTGTTCTCCCAGCTGATGAATTATTTAACTCGAGTAAACAAATTTTCCTAATCTTTCTGTTCAAGCGCCATCTAC”, the binding signal was 1.05 RPM ratio (pull-down/input).

In the case of “GATGATTGTTCTCCCAGCTGATGAATTGACTACCTCGAGTAAACAAATTTTCCTAATCTTTCTGTTCAAGCGCCATCTAC”, the binding signal is 0.994 RPM ratio (pull-down/input).

“GATGATTGTTCTCCCAGCTGATGAATTGCGGAGCTCGAGTAAACAAATTTTCCTAATCTTTCTGTTCAAGCGCCATCTAC”: the binding signal was 0.917 RPM ratio (pull-down/input).

On to “GATGATTGTTCTCCCAGCTGATGAATTAGGCTGCTCGAGTAAACAAATTTTCCTAATCTTTCTGTTCAAGCGCCATCTAC”, for which the binding signal is 0.85 RPM ratio (pull-down/input).

For the sequence “GATGATTGTTCTCCCAGCTGATGAATTGCTAACATCGAGTAAACAAATTTTCCTAATCTTTCTGTTCAAGCGCCATCTAC”, the binding signal is 1.33 RPM ratio (pull-down/input).

Consider “GATGATTGTTCTCCCAGCTGATGAATTTACAAAATCGAGTAAACAAATTTTCCTAATCTTTCTGTTCAAGCGCCATCTAC”, for which the binding signal is 1.74 RPM ratio (pull-down/input).

On to “GATGATTGTTCTCCCAGCTGATGAATTCTTATTTTCGAGTAAACAAATTTTCCTAATCTTTCTGTTCAAGCGCCATCTAC”, for which the binding signal was 2.25 RPM ratio (pull-down/input).

Regarding “GATGATTGTTCTCCCAGCTGATGAATTCGTCTCTTCGAGTAAACAAATTTTCCTAATCTTTCTGTTCAAGCGCCATCTAC”, the binding signal is 0.871 RPM ratio (pull-down/input).

“GATGATTGTTCTCCCAGCTGATGAATTCCAGGAATCGAGTAAACAAATTTTCCTAATCTTTCTGTTCAAGCGCCATCTAC”: the binding signal was 0.952 RPM ratio (pull-down/input).

As for “GATGATTGTTCTCCCAGCTGATGAATTGCATCGGTCGAGTAAACAAATTTTCCTAATCTTTCTGTTCAAGCGCCATCTAC”, the binding signal is 1.12 RPM ratio (pull-down/input).

Regarding “GATGATTGTTCTCCCAGCTGATGAATTCATAAGCTCGAGTAAACAAATTTTCCTAATCTTTCTGTTCAAGCGCCATCTAC”, the binding signal was 0.847 RPM ratio (pull-down/input).

As to “GATGATTGTTCTCCCAGCTGATGAATTCAGGGTCTCGAGTAAACAAATTTTCCTAATCTTTCTGTTCAAGCGCCATCTAC”, the binding signal was 0.838 RPM ratio (pull-down/input).

Regarding “GATGATTGTTCTCCCAGCTGATGAATTCTGAAAATCGAGTAAACAAATTTTCCTAATCTTTCTGTTCAAGCGCCATCTAC”, the binding signal is 0.958 RPM ratio (pull-down/input).
